# Laboratory results as given in the supplement of paper PMC8728848.
# The other results are listed elsewhere or left out.
# Tests used:
# Experiment in all cases: glycan array binding signal (z-score within array); higher = stronger binding
# Details in all cases: glycan notation: IUPAC condensed, linker removed
# [1] = biological target: Gal(b1-4)GlcNAc(b1-3)Gal(b1-4)GlcNAc(b1-3)Gal(b1-4)GlcNAc(b1-3)Gal(b1-4)GlcNAc(b1-2)Man(a1-3)[Gal(b1-4)GlcNAc(b1-3)Gal(b1-4)GlcNAc(b1-3)Gal(b1-4)GlcNAc(b1-3)Gal(b1-4)GlcNAc(b1-2)Man(a1-6)]Man(b1-4)GlcNAc(b1-4)[Fuc(a1-6)]GlcNAc
# In short: (§1)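 The Consortium for Functional Glycomics database supplied 3228 glycan arrays, of which those lacking an available protein sequence were dropped. The binding signal, a within-array Z-score, was averaged across arrays of the same protein sequence and across linkers. Negative scores can be read as non-binding.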
# [2] = biological target: Gal(b1-4)GlcNAc(b1-3)Gal(b1-4)GlcNAc(b1-3)Gal(b1-4)GlcNAc(b1-3)Gal(b1-4)GlcNAc(b1-2)[Gal(b1-4)GlcNAc(b1-3)Gal(b1-4)GlcNAc(b1-3)Gal(b1-4)GlcNAc(b1-3)Gal(b1-4)GlcNAc(b1-6)]Man(a1-6)[Gal(b1-4)GlcNAc(b1-3)Gal(b1-4)GlcNAc(b1-3)Gal(b1-4)GlcNAc(b1-3)Gal(b1-4)GlcNAc(b1-2)Man(a1-3)]Man(b1-4)GlcNAc(b1-4)[Fuc(a1-6)]GlcNAc
# In short: as §1
# [3] = biological target: Gal(b1-4)GlcNAc(b1-3)Gal(b1-4)GlcNAc(b1-3)Gal(b1-4)GlcNAc(b1-3)Gal(b1-4)GlcNAc(b1-3)Gal(b1-4)GlcNAc(b1-2)Man(a1-3)[Gal(b1-4)GlcNAc(b1-3)Gal(b1-4)GlcNAc(b1-3)Gal(b1-4)GlcNAc(b1-3)Gal(b1-4)GlcNAc(b1-3)Gal(b1-4)GlcNAc(b1-2)Man(a1-6)]Man(b1-4)GlcNAc(b1-4)GlcNAc
# In short: as §1
# [4] = biological target: Gal(b1-4)GlcNAc(b1-3)Gal(b1-4)GlcNAc(b1-3)Gal(b1-4)GlcNAc(b1-3)Gal(b1-4)GlcNAc(b1-3)Gal(b1-4)GlcNAc(b1-2)Man(a1-3)[Gal(b1-4)GlcNAc(b1-3)Gal(b1-4)GlcNAc(b1-3)Gal(b1-4)GlcNAc(b1-3)Gal(b1-4)GlcNAc(b1-3)Gal(b1-4)GlcNAc(b1-2)Man(a1-6)]Man(b1-4)GlcNAc(b1-4)[Fuc(a1-6)]GlcNAc
# In short: as §1
# [5] = biological target: Gal(b1-4)GlcNAc(b1-3)Gal(b1-4)GlcNAc(b1-3)Gal(b1-4)GlcNAc(b1-3)Gal(b1-4)GlcNAc(b1-3)Gal(b1-4)GlcNAc(b1-2)[Gal(b1-4)GlcNAc(b1-3)Gal(b1-4)GlcNAc(b1-3)Gal(b1-4)GlcNAc(b1-3)Gal(b1-4)GlcNAc(b1-3)Gal(b1-4)GlcNAc(b1-6)]Man(a1-6)[Gal(b1-4)GlcNAc(b1-3)Gal(b1-4)GlcNAc(b1-3)Gal(b1-4)GlcNAc(b1-3)Gal(b1-4)GlcNAc(b1-3)Gal(b1-4)GlcNAc(b1-2)Man(a1-3)]Man(b1-4)GlcNAc(b1-4)[Fuc(a1-6)]GlcNAc
# In short: as §1
# [6] = biological target: Gal(b1-4)GlcNAc(b1-3)Gal(b1-4)GlcNAc(b1-3)Gal(b1-4)GlcNAc(b1-3)Gal(b1-4)GlcNAc(b1-3)Gal(b1-4)GlcNAc(b1-3)Gal(b1-4)GlcNAc(b1-2)Man(a1-3)[Gal(b1-4)GlcNAc(b1-3)Gal(b1-4)GlcNAc(b1-3)Gal(b1-4)GlcNAc(b1-3)Gal(b1-4)GlcNAc(b1-3)Gal(b1-4)GlcNAc(b1-3)Gal(b1-4)GlcNAc(b1-2)Man(a1-6)]Man(b1-4)GlcNAc(b1-4)GlcNAc
# In short: as §1
# [7] = biological target: Gal(b1-4)GlcNAc(b1-3)Gal(b1-4)GlcNAc(b1-3)GalNAc
# In short: as §1
# [8] = biological target: Gal(b1-4)GlcNAc(b1-3)Gal(b1-4)GlcNAc(b1-3)[Gal(b1-4)GlcNAc(b1-3)Gal(b1-4)GlcNAc(b1-6)]GalNAc
# In short: as §1
# [9] = biological target: Gal(b1-4)GlcNAc(b1-3)Gal(b1-4)GlcNAc(b1-6)[Gal(b1-3)]GalNAc
# In short: as §1
# [10] = biological target: Gal(b1-4)GlcNAc(b1-3)Gal(b1-4)[Fuc(a1-3)]GlcNAc(b1-3)Gal(b1-4)[Fuc(a1-3)]GlcNAc
# In short: as §1
# [11] = biological target: Gal(b1-4)GlcNAc(b1-3)GalNAc
# In short: as §1
# [12] = biological target: Gal(b1-4)GlcNAc(b1-3)[Fuc(a1-3)GlcNAc(b1-6)]Gal(b1-4)Glc
# In short: as §1
# [13] = biological target: Gal(b1-4)GlcNAc(b1-3)[Gal(b1-4)GlcNAc(b1-6)]Gal(b1-4)GlcNAc
# In short: as §1
# [14] = biological target: Gal(b1-4)GlcNAc(b1-3)[GlcNAc(b1-6)]Gal(b1-4)GlcNAc
# In short: as §1
# [15] = biological target: Gal(b1-4)GlcNAc(b1-6)Gal(b1-4)GlcNAc
# In short: as §1
# [16] = biological target: Gal(b1-4)GlcNAc(b1-6)GalNAc
# In short: as §1
# [17] = biological target: Gal(b1-4)GlcNAc(b1-6)[Gal(b1-3)]GalNAc
# In short: as §1
# [18] = biological target: Gal(b1-4)GlcNAc(b1-6)[Gal(b1-4)GlcNAc(b1-3)]GalNAc
# In short: as §1
# Gal(b1-4)GlcNAc6P = biological target: Gal(b1-4)GlcNAc6P
# In short: as §1
# Gal(b1-6)Gal = biological target: Gal(b1-6)Gal
# In short: as §1
# Gal3S(b1-3)GalNAc = biological target: Gal3S(b1-3)GalNAc
# In short: as §1
# Gal3S(b1-3)GlcNAc = biological target: Gal3S(b1-3)GlcNAc
# In short: as §1
# [19] = biological target: Gal3S(b1-3)[Fuc(a1-4)]GlcNAc
# In short: as §1
binder,measurement,setting,value
"Langerin K313I (Homo sapiens), Q9UJ71 (protein) STLNAQIPELKSDLEKASALNTKIRALQGSLENMSKLLKRQNDILQVVSQGWKYFKGNFYYFSLIPKTWYSAEQFCVSRNSHLTSVTSESEQEFLYKTAGGLIYWIGLTKAGMEGDWSWVDDTPFNKVQSARFWIPGEPNNAGNNEHCGNIKAPSLQAWNDAPCDITFLFICKRPYVPSEP",glycan array binding signal (z-score),[1],0.134
same,glycan array binding signal (z-score),[2],0.147
same,glycan array binding signal (z-score),[3],-0.011
same,glycan array binding signal (z-score),[4],-0.085
same,glycan array binding signal (z-score),[5],0.369
same,glycan array binding signal (z-score),[6],0.037
same,glycan array binding signal (z-score),[7],-0.006
same,glycan array binding signal (z-score),[8],0.191
same,glycan array binding signal (z-score),[9],0.134
same,glycan array binding signal (z-score),[10],-0.16
same,glycan array binding signal (z-score),[11],-0.373
same,glycan array binding signal (z-score),[12],-0.384
same,glycan array binding signal (z-score),[13],-0.354
same,glycan array binding signal (z-score),[14],-0.314
same,glycan array binding signal (z-score),[15],-0.4
same,glycan array binding signal (z-score),[16],-0.274
same,glycan array binding signal (z-score),[17],-0.332
same,glycan array binding signal (z-score),[18],-0.299
same,glycan array binding signal (z-score),Gal(b1-4)GlcNAc6P,-0.339
same,glycan array binding signal (z-score),Gal(b1-6)Gal,-0.178
same,glycan array binding signal (z-score),Gal3S(b1-3)GalNAc,-0.388
same,glycan array binding signal (z-score),Gal3S(b1-3)GlcNAc,-0.376
same,glycan array binding signal (z-score),[19],0.004
